Test results: PubChem BioAssay AID686978 (National Center for Advancing Translational Sciences (NCATS), 2013)
Screen size: about 420,000 compounds; about 64,000 (15%) were called active. This list was built around the results that the source calls inconclusive (neither active nor inactive); the mix of calls is not that of the screen. Calls follow the shape of the dose curve; as a rule, active = well fitted inhibition curve with a large enough effect; inconclusive = small, poorly fitted or top-dose-only effect; inactive = flat fitted curve, though single readings scatter. Potencies of inconclusive entries are left out as doubtful fits.

Experiment: qHTS for Inhibitors of human tyrosyl-DNA phosphodiesterase 1 (TDP1): qHTS in cells in absence of CPT; also: nearly all actives have a fitted effect of over 55% in size
Conditions: DT40 Tdp1-/- hTDP1 cells, no CPT, ATP luminescence, 48 h; activity change, negative = growth inhibition: at 46.2 µM (top of the series) unless noted
Method in brief: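 Luminescent ATP content (CellTiter-Glo) served as the growth readout. Knockout chicken DT40 cells expressing human TDP1 were exposed to compounds without camptothecin for a minimum 48 hr at 37 °C.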
% is scaled to controls: 0 for no effect and ±100 for the full control effect; potency is read from the fitted curve at half-maximal effect; tags tell the direction and shape of the fitted curve.

Compound	Potency	activity change, negative = growth inhibition
Cc1ccc(NC(=O)C2CC(=O)N(C(C)c3ccccc3)C2)cc1 (stereo unspecified)	inactive	–
CCN(CC)c1ccc2c(Cl)cc(=O)oc2c1	inactive	–
COc1ccc(NS(=O)(=O)c2ccc(C)c(NC(=O)NC3CCCCC3)c2)cc1	inconclusive [inhibitor, single point]	–
NC(=O)c1nsc(C(=O)N(c2ccc(F)cc2)C(C(=O)NC2CCCC2)c2ccncc2)c1N (stereo unspecified)	inactive	–
CC(C)c1cc(C(=O)NCCc2cccs2)c(N)s1	inconclusive [inhibitor, single point]	–
O=C(Nc1cccc(OC(F)(F)F)c1)c1cccc2c(-c3cccnc3)coc12	active: 20.6 µM	–
O=C(NC1CCCC1)c1ccc2c(c1)N(Cc1ccc(F)cc1)CCS2	inconclusive [inhibitor, single point]	–
COc1ccc(C(=O)NC(=S)NC2CCCCC2)cc1	–	inconclusive: -35.2% [inhibitor]
CCn1c(CC(=O)Nc2ccc(F)cc2)nnc1SCC(=O)NC1=NCCS1	inconclusive [inhibitor, single point]	–
CN(Cc1ccccc1)C(=O)Cn1c(=O)c2cccn2c2cccnc21	inconclusive [inhibitor, full curve, poor fit]	–
COCCn1nnnc1C(c1ccc(OC)c(OC)c1)N1CCN(c2nc3ccccc3s2)CC1 (stereo unspecified)	inconclusive [inhibitor, partial curve, poor fit]	–
Cc1cccc(CN2C(=O)c3ccccc3S(=O)(=O)c3ccc(C(=O)NC4CCCCC4)cc32)c1	inactive	–
COc1ccc(-c2cc(C(=O)N/N=C/c3sccc3C)c3ccccc3n2)c(OC)c1	inconclusive [inhibitor, partial curve, poor fit]	–
C[C@H](O)[C@@H]1CN2CCc3c([nH]c4ccccc34)[C@@H]2C[C@@H]1N(C)C(=O)OCc1ccccc1	inconclusive [inhibitor, single point]	–
CCCS(=O)(=O)NCCc1csc(-c2ccc(OC)c(OC)c2)n1	inconclusive [inhibitor, single point]	–
Cc1ccc(C(=O)CC2(O)C(=O)N(Cc3ccc4c(c3)OCO4)c3ccccc32)cc1 (stereo unspecified)	inconclusive [inhibitor, single point]	–
COc1ccccc1-c1ccnc(-n2ncc(C(=O)N[C@H]3CCCCNC3=O)c2C2CC2)n1	active: 20.6 µM	–
NC(c1csc(NC(=O)Nc2cccc(Cl)c2)n1)C1CCCCC1 (stereo unspecified)	inconclusive [inhibitor, single point]	–
CC1=C(C(=O)NC2CCCc3c2cnn3-c2cc(F)cc(F)c2)OCCO1 (stereo unspecified)	inconclusive [inhibitor, partial curve]	–
O=S(=O)(/N=C(/Nc1ccc(Cl)cc1Cl)c1ccccc1)c1cccs1	inactive	–
C/C(=N\NC(=O)CSCc1ccccc1Cl)c1cc(O)ccc1O	active: 5.17 µM	–
CCOc1ncccc1C(=O)Nc1cccc(S(=O)(=O)N2CCOCC2)c1	inactive	–
CCc1ccc(OCc2ccccc2C(=O)Nc2ccc3nc(C)cc(N)c3c2)cc1	active: 3.16 µM	–
CCC(=O)N1CCCc2cc(S(=O)(=O)N3CCC(C(=O)Nc4ccc(C#N)cc4)CC3)ccc21	inconclusive [inhibitor, single point]	–

Compound	Potency	activity change, negative = growth inhibition
COc1cc(/C=N/Nc2nncn2N)ccc1OCc1c(C)no[n+]1[O-]	inactive	–
CC(C)c1csc(CN2CCN(Cc3ccccc3)C(CCO)C2)n1 (stereo unspecified)	–	inconclusive: -31.1% [inhibitor]
O=C(NNC(=O)c1cccs1)c1ccncc1	inactive	–
Cc1cccc2c(=O)cc(CSc3ccccc3NC(=O)C(C)(C)C)[nH]c12	inactive	–
N#Cc1cnn2c3c(cnc12)C(=O)N1CCc2ccccc2C1C3 (stereo unspecified)	inconclusive [inhibitor, single point]	–
O=c1c2ccccc2c(-c2ccccc2)nn1-c1cc(Cl)ccc1[N+](=O)[O-]	inconclusive [inhibitor, single point]	–
Cc1cc(C)cc(NC(=O)Cn2cnc3c(nnn3Cc3ccc(F)cc3)c2=O)c1	inactive	–
COc1ccccc1CC(=O)NCC1Cc2cc(F)cc(-c3cncnc3)c2O1 (stereo unspecified)	inactive	–
CCCC(=O)Nc1ccccc1C(=O)OCc1cc(=O)n2nc(C(C)C)sc2n1	inconclusive [inhibitor, single point]	–
Cc1ccc(C(C(=O)NC2CCCCC2)N(CCC(C)C)C(=O)CNC(=O)c2ccco2)o1 (stereo unspecified)	inconclusive [inhibitor, single point]	–
O=C(NNC(=O)c1cc2ccccc2cc1O)c1cccs1	inconclusive [inhibitor, single point]	–
CC(C)(C)OC(=O)N1CCC(C(=O)Nc2cccc(C(=O)NCCCCc3ccccc3)c2)CC1	inconclusive [inhibitor, partial curve]	–
COc1ccc(-n2ncc3c2CC(C)(C)CC3NC(=O)Cc2nonc2C)cc1 (stereo unspecified)	inconclusive [inhibitor, single point]	–
CCN(CC)c1ccc(/C=C(/C#N)c2nc3ccc(C)cc3[nH]2)c(OC(C)C)c1	active: 20.6 µM	–
Cc1ccc(C(=O)N2CCOCC2)cc1S(=O)(=O)Nc1cccc(C)c1C	inactive	–
CCCOC(=O)c1[nH]c2c(c1C)C(=O)CC(c1cc(OC)c(OC)c(OC)c1)C2 (stereo unspecified)	active: 4.61 µM	–
COc1ccc(C(=O)NC2CCCCCC2)cc1S(=O)(=O)N1CCCc2ccccc21	inconclusive [inhibitor, single point]	–
COc1ccccc1NC(=S)NCC1CCCO1 (stereo unspecified)	inactive	–
CC(=C/c1ccccc1)/C=N/NC(=O)c1ccc2nc[nH]c2c1	inconclusive [inhibitor, single point]	–
O=S(=O)(NCc1ccccc1)c1ccccc1Br	inactive	–
O=CN1CCN(C=O)C(O)C1O (stereo unspecified)	inactive	–
COC(=O)c1cc2c(N)c(C(=O)c3ccc(Cl)cc3)sc2nc1C(OC)OC	active: 14.6 µM	–
O=C(CCCNC(=O)c1ccc(Cl)cc1)Nc1ccccc1C(F)(F)F	inactive	–
Cc1cc([N+](=O)[O-])ccc1NC(=O)Nc1ccccc1F	inconclusive [inhibitor, single point]	–

Compound	Potency	activity change, negative = growth inhibition
O=C(NNc1c([N+](=O)[O-])cc(C(F)(F)F)cc1[N+](=O)[O-])c1ccco1	active: 23.1 µM	–
COc1ccccc1NS(=O)(=O)c1cc(NC(=O)c2ccco2)ccc1N1CCOCC1	inconclusive [inhibitor, partial curve, poor fit]	–
CCc1ccc(OCC(=O)N2CCN(c3ccccn3)CC2)c(Br)c1	inconclusive [inhibitor, partial curve]	–
CC1CCN(CC(=O)Nc2ccccc2C#N)CC1	inconclusive [inhibitor, partial curve]	–
COc1ccc2cc(Br)ccc2c1CC(=O)N1CCCC1	inconclusive [inhibitor, partial curve, poor fit]	–
O=C(Oc1ccc(-c2cnc3ccccc3n2)cc1)c1ccc(Cl)c([N+](=O)[O-])c1	inconclusive [inhibitor, single point]	–
COc1ccc(OC)c(S(=O)(=O)N2CCN(Cc3nc4ccc(C)cc4o3)CC2)c1	inactive	–
OC(CNC1CCCC1)COc1ccc(Cl)cc1 (stereo unspecified)	inconclusive [inhibitor, single point]	–
CCc1noc(C)c1C(=O)NCCc1ccc(Cl)cc1	inconclusive [inhibitor, single point]	–
COC(=O)c1ccc(-n2c(/C=C/c3cc(OC)c(OC)c(OC)c3)nc3cc(Cl)ccc3c2=O)cc1	active: 14.6 µM	–
Cc1cc(C(=O)N2CCC2(C)C(=O)NS(=O)(=O)c2cccc(OC(F)F)c2)nn1C (stereo unspecified)	inactive	–
Cc1ccc2oc(C(Cl)(Cl)Cl)cc(=O)c2c1	active: 5.8 µM	–
CC(C)CN(C(=O)COC(=O)CCc1nc2ccccc2s1)c1c(N)n(Cc2ccccc2)c(=O)[nH]c1=O	inconclusive [inhibitor, single point]	–
Cc1ccc(C)c(S(=O)(=O)N2CCCCC2CCNC(=O)C(=O)NCc2ccncc2)c1 (stereo unspecified)	inconclusive [inhibitor, single point]	–
C/C(=N\NC(=O)c1cccc(S(=O)(=O)N2CCOCC2)c1)c1ccc(O)cc1	inactive	–
O=C(CSc1nnc(CN2CCOCC2)n1-c1ccc(Cl)cc1)N1CCc2ccccc21	inconclusive [inhibitor, full curve, poor fit]	–
C=CCN1C(=O)/C(=C/C=C2/N(CC)c3ccc(S(=O)(=O)N(C)C)cc3N2CC)SC1=S	inconclusive [inhibitor, full curve]	–
Cc1cc(C)cc(NC(=O)N2CCN(C(=O)c3nsc4ccccc34)CC2)c1	inconclusive [inhibitor, single point]	–
CCNc1cc2c(cc1O)CCC1C2CCC2(C)C(O)CCC12 (stereo unspecified)	active: 23.1 µM	–
CCN(CC)S(=O)(=O)c1cccc(NC(=O)CN2C(=O)NC3(CCOc4ccccc43)C2=O)c1 (stereo unspecified)	inconclusive [inhibitor, single point]	–
CCCC(C)C(=O)Nc1ncc(S(=O)(=O)c2ccc([N+](=O)[O-])cc2)s1 (stereo unspecified)	inconclusive [inhibitor, single point]	–
Cc1cc(Br)ccc1NC(=O)COC(=O)c1ccccc1OCC(=O)N(C)C	inactive	–
CSc1ncnc2c1ncn2CCCNCc1cccc2ccccc12	inconclusive [inhibitor, single point]	–
